The RNAGym collection of RNA variant scans (doi:10.1073/pnas.2313332121)
Variants at the background level are over-represented here.

B1: TPR 5TU (parent)
chain: GGAUCUUCUCGAUCUAACAAAAAAGACAAAUCUGCCACAAAGCUUGAGAGCAUCUUCGGAUGCAGAGGCGGCAGCCUUCGGUGGCGCGAUAGCGCCAACGUUCUCAACUAUGACACGCAAAACGCGUGCUCCGUUGAAUGGAGUUUAUCAUG

Variants of: B1
Experiment: polymerase ribozyme fitness, log enrichment relative to wild type (log ratio); higher = more active; in vitro selection for triplet polymerase activity
Method in brief: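 Libraries of mutants in each subunit of a heterodimeric triplet polymerase ribozyme were generated by PCR and transcribed. In triplicate, each went through one in vitro selection round: annealing with biotinylated primer, partner subunit and triplets; frozen incubation at −7 °C; gel excision of extended constructs; streptavidin-bead capture; RT-PCR. Fitness, taken from Illumina sequencing of input and output libraries, is the logarithm of a genotype's enrichment over wild-type enrichment, averaged across replicates with inverse-variance weights. The logarithm is base 2, and genotypes needed ≥10 input reads and ≥1 read per output to be kept.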

Variant	polymerase ribozyme fitness (log ratio)
C32A G42U G81C G88A C99U	≤ -4.2
U31C C32A A115U U130G	≤ -4.2
C32A G48U A49C U55G G58A A119C C149U	≤ -4.2
A30U G68A G70A G86U G133U U144A	≤ -4.2
A30U U77G G84U C129G G152C	≤ -4.2
A30U G74A	≤ -4.2
A30U U53G C76A G92A A115C	≤ -4.2
U31G A110C A138C	≤ -4.2
U31C A40U C57U G143U U148G	≤ -4.2
C32G C38A C54U C87G C93A A106C G117C	≤ -4.2
U31G C54U U109G A137G	-2.71
C32G A49G C76A U82C U104G	≤ -4.2
C32G U55A C96A A119G	≤ -4.2
U31A C54A G84U C85U	-2.6
C32G G42U U55A U61A C85A C95A A107U	≤ -4.2
C32A C54U C93A A110G A137G G140C	-4.17
C32A A41C A60G C85A U144C	≤ -4.2
U31G G74U C108U	≤ -4.2
U31G A40U G48A G84A C87U A119U	≤ -4.2
U31G G42A C57U C79A G84U C87G A120U U127C U139A U144C	≤ -4.2
C32A U55A C69A	≤ -4.2

Variant	polymerase ribozyme fitness (log ratio)
C32G A41C C75U	≤ -4.2
C32G G46U A47G U53G C75G C108G A110C U145G	≤ -4.2
C32U A39G A41U C54A G81A C118U	≤ -4.2
U31G U78G C95A	≤ -4.2
C32G U55A C76U A89G C95U C96G	≤ -4.2
U31A C32U U33C G34U C79A G84A C87U C103A	≤ -4.2
U31A C75G C76G C96A U145G	≤ -4.2
C32A C54U C79G G84U	≤ -4.2
C32G C35A A40U C105U	≤ -4.2
U31G U33A A60U C95A A107U G133C	≤ -4.2
U31G G84A A89G	-0.747
U31A A52C C85U C96U C114U U134A	≤ -4.2
C32A G70A	≤ -4.2
C32G A49U C57G C63A C93G	≤ -4.2
A30U G94C A150U	-3.55
U31C G143A	0.14
U31A C38U U44G G86U A142C	≤ -4.2
C32G C36U C54A G83U G128U	≤ -4.2
U31C C36G U56A G70C G94A C129G	-3
U31A A49C C99G C108G	≤ -4.2
C32G U82G	≤ -4.2

Variant	polymerase ribozyme fitness (log ratio)
U31C C85G A98G	-1.26
C32G G71U C87G C114U U146G	≤ -4.2
U31A C32A A41C G86U A106U A138U	≤ -4.2
U31G A52G A66U G68A A91G C96A G112A A119U G136U	≤ -4.2
U31A C38U A52U A60C A106G G128A	≤ -4.2
C32G A40U U45G G84A C95G G141A	≤ -4.2
C32G U33A A122G	≤ -4.2
U31C A47C A52C G68A C95G	≤ -4.2
C32G G42A G59A C79U A115G C132U	≤ -4.2
C32A C36G A47G C72G A89G A91G	≤ -4.2
C32G A41U U82A G83A C95G C96G C118A G128C U130C G143C	≤ -4.2
U31C C96U U104A C123U G126A A142C A147C	≤ -4.2
C32G C54A G62A G84U C116U G133U	≤ -4.2
A30U U44A G136U	≤ -4.2
U31G U55A G59C C79A C85U C116A A138U U151G	≤ -4.2
C32G C35G C76U U78C A89U C103G	≤ -4.2
U31G A89G C95U	-1.41
U31G G84U C103A G126C	≤ -4.2
U31G C54G	-1.02
U31A C43A C57G	≤ -4.2
U31A C38A A49G A91U	≤ -4.2

Variant	polymerase ribozyme fitness (log ratio)
C32A G117U U148A	≤ -4.2
C32G U56G G68C	≤ -4.2
U31G A91U	-4.03
C32G U53A C87A A91C	≤ -4.2
C32U A47C C85A C93U C99U C114G G152C	≤ -4.2
A30U U31C U53A U55A A89U C103G G126U A150U	≤ -4.2
C32A C93U G140A	≤ -4.2
U31G U61A A66G U90C U101C	≤ -4.2
U31C A39U C57A C95U A113C A119U	≤ -4.2
C32A A47U C114U G126U	≤ -4.2
C32A G34U U55G G94C U127C	≤ -4.2
U31G A52G G92A C99G	≤ -4.2
U31C A49C G94U A121U	≤ -4.2
U31G U44A A49C C96A A115U C118U A119C	≤ -4.2
C32G G50A G58C G86U C103U A121G C131G G140U	≤ -4.2
C32U A39U U61A C118G	≤ -4.2
U31G G50A C51U G62C G68U C95U U101G A106C	≤ -4.2
U31G G50U U56G	-1.97
A30U U55G C76G A91C	≤ -4.2
U31A G67U U82A C85U C105U C116U U144C	≤ -4.2
C32G U56A C57A C114G	-4.19
